# In PubChem BioAssay AID485294 (National Center for Advancing Translational Sciences (NCATS), 2010):
# Screen size: about 370,000 compounds; about 150 (0.041%) were called active. The inconclusive results got no clear call from the source; some entries with a clear call stand among them for comparison. Calls follow the shape of the dose curve; as a rule, active = well fitted inhibition curve with a large enough effect; inconclusive = small, poorly fitted or top-dose-only effect; inactive = flat fitted curve, though single readings scatter. No potency is given beside an inconclusive call; the fits are too rough.
# Target: Beta-lactamase (Escherichia coli (strain K12)) (UniProt P00811)
# Assay: qHTS Inhibitors of AmpC Beta-Lactamase (assay with detergent); also: nearly all actives have a fitted effect of over 25% in size
# Settings: AmpC hydrolysis of nitrocefin, absorbance 480 nm, 0.01% Triton; series mostly up to 114 µM
# How it was run: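 20 mM phosphate pH 7.0 + 0.01% (detergent screen) or 0.0001% Triton X-100; 5.3 nM AmpC reagent; cpd preinc 15 min RT; nitrocefin (800 uM stock) to start; A480 q20 s × 4 min; Activity was normalised to no-enzyme and no-compound control wells.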
# Potency is read from the fitted curve at half-maximal effect; tags tell the direction and shape of the fitted curve.
# UniProt P00811, sequence (P00811 whole entry, looked up): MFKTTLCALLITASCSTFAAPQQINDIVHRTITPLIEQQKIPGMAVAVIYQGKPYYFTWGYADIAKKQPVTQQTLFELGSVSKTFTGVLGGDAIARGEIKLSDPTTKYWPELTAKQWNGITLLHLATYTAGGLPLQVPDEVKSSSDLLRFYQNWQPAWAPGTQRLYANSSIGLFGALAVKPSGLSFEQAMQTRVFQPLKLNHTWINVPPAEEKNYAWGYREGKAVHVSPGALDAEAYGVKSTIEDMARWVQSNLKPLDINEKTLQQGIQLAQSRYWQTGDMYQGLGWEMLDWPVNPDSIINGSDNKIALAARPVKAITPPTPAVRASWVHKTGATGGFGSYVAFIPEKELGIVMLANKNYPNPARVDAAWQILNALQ
row,Compound,Potency
1,O=C(NCCc1ccccc1)C1CCN(Cc2ccccc2F)CC1,"inconclusive [inhibitor, single point]"
2,Cn1c(=O)c2c(nc(N3CCN(c4ccccn4)CC3)n2Cc2ccccc2Cl)n(C)c1=O,inactive
3,O=C(Nc1c(F)cc(F)cc1F)c1cccn(Cc2ccccc2)c1=O,"inconclusive [inhibitor, single point]"
4,O=C1C2C(c3ccccc3)C=CC(c3ccccc3)C2C(=O)N1CCO (stereo unspecified),"inconclusive [inhibitor, full curve, poor fit]"
5,CC(C)c1ccc(OCC(=O)Nc2ccc3oc(=O)ccc3c2)cc1,inactive
6,c1ccc(CNc2ncnc3nc[nH]c23)cc1,inactive
7,O=C(O)c1ccc(N/N=C/c2ccc(-c3ccc(Cl)cc3Cl)o2)cc1,inactive
8,COc1cccc(C(=O)NC(=S)Nc2ccccc2N2CCCCC2)c1,inactive
9,CCOC(=O)N1CCN(C(=O)c2ccc3c(c2)N(Cc2ccccc2)CCS3)CC1,inactive
10,Cc1ccc(CN(C)C(=O)c2ccc3c(c2)NC(=O)CS3)o1,"inconclusive [inhibitor, single point]"
11,Cc1ccc(S(=O)(=O)N2CCCOC2CNC(=O)C(=O)NCc2ccccc2C)cc1 (stereo unspecified),"inconclusive [inhibitor, single point]"
12,Cc1ccc(C(=O)c2cncc(Br)c2)cc1,"inconclusive [inhibitor, full curve, poor fit]"
13,Cc1c(CNCCCc2ccccc2)c(C(=O)O)c(C)n1Cc1cccc(Cl)c1,inactive
14,COc1ccc(C(=O)NCC(=O)OCc2ccc(F)cc2)cc1,"inconclusive [inhibitor, single point]"
15,C[N+]1(C)C2CC[C@H]1CC(OC(=O)C(CO)c1ccccc1)C2 (stereo partly specified),"inconclusive [inhibitor, full curve, poor fit]"
16,COC(=O)c1sc(NC(=O)C(C)C)c(C(=O)OC)c1C,inactive
17,Cc1ccccc1S(=O)(=O)Cc1ccc(C(=O)NCc2ccco2)o1,"inconclusive [inhibitor, partial curve, poor fit]"
18,CCC(C)C1C(C#N)=C(N)Oc2n[nH]c(-c3ccccc3)c21 (stereo unspecified),"inconclusive [inhibitor, full curve]"
19,O=C1NCC(COc2ccc(Cl)cc2)O1 (stereo unspecified),"inconclusive [inhibitor, full curve, poor fit]"
20,CCOC(=O)c1ccc(N2C(=O)C3CCCN3C2=S)cc1 (stereo unspecified),"inconclusive [inhibitor, full curve, poor fit]"
21,CNc1snc(C)c1C(=O)OCC(=O)c1ccc(Cl)cc1,"inconclusive [inhibitor, single point]"
